From the RNAGym collection of RNA variant scans (doi:10.1093/nar/gkz1192)
Read counts are not given, so values of variants with three or more changes are uncertain.

B1: CPEB3 Ribozyme (parent)
chain: UAACAGGGGGCCACAGCAGAAGCGUUCACGUCGCAGCCCCUGUCAGAUUCUGGUGAAUCUGCGAAUUCUGCUGUAUAUCUC

Variants of: B1
Experiment: self-cleavage, relative activity (ratio to wild type); higher = more cleavage; in vitro, sequencing
Method in brief: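 After error-prone PCR and barcoding, CPEB3 ribozyme mutant libraries were transcribed with T7 RNA polymerase at 37°C for 5 hours, then given 15 min with DNase I before an EDTA stop, and they cleaved during both steps. Reverse transcription with template switching preceded Illumina sequencing. Relative activity divides a variant's cleaved/total read fraction by the unmutated ribozyme's. At least 5 reads were required per variant, and three batches were averaged.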

Row | Variant | self-cleavage
1 | UAACAGGGGGCCACUGCAGAAGCGUUCACGUCGCAGCCCCUGUCAGACUCUGGUGAAUCUGCGAAUUCUGCUGUAUAUGUC [A15U U48C C79G] | 0.44
2 | UAACAGGGGGCCACUGCAGAAGCGUUCACGUCGCAGCCCCUGUCAGACUCUGGAGGAUCUGCGAAUUCUGCUGUAUAUCUC [A15U U48C U54A A56G] | 0.23
3 | UAACAGGGGGCCACUGCAGAAGCGUUCACGUCGCAGCCCCUGUCAGACUCUGGUGAAUCCGCGGAUUCCGCUGUAUAUCUC [A15U U48C U60C A64G U69C] | 0.07
4 | UAACAGGGGGCCACUGCAGAAGCGUUCACGUCGCAGCCCCUGUCAGAUCCUGGUGGAUCUGUGAAUUCUGUUGUGUAUCUC [A15U U49C A56G C62U C71U A75G] | 0.07
5 | UAACAGGGGGCCACUGCAGAAGCGUUCACGUCGCAGCCCCUGUCAGAUCCUGGUGGAUCUGCGAAUUCUGCUGCAUAUCCC [A15U U49C A56G U74C U80C] | 0.71
6 | UAACAGGGGGCCACUGCAGAAGCGUUCACGUCGCAGCCCCUGUCAGAUCCUGGUGUAUCUGCGAAUUCUGCUGUAUAUCUC [A15U U49C A56U] | 0.16
7 | UAACAGGGGGCCACUGCAGAAGCGUUCACGUCGCAGCCCCUGUCAGAUCCUGGUGAAUCUGCGGAUUCUGCUGUAUAUCUC [A15U U49C A64G] | 0.15
8 | UAACAGGGGGCCACUGCAGAAGCGUUCACGUCGCAGCCCCUGUCAGAUCCUGGUGAAUCAGCGAAUUCUGCUGUAUAUCUC [A15U U49C U60A] | 0.12
9 | UAACAGGGGGCCACUGCAGAAGCGUUCACGUCGCAGCCCCUGUCAGAUCCUGGUGAAUCAGCGAAUUCUGCUGUAUUUCCC [A15U U49C U60A A77U U80C] | 0.1
10 | UAACAGGGGGCCACUGCAGAAGCGUUCACGUCGCAGCCCCUGUCAGAUCCUGGUGAAUCUGCGAAUUCAGCUGUACAUCUC [A15U U49C U69A U76C] | 0.09
11 | UAACAGGGGGCCACUGCAGAAGCGUUCACGUCGCAGCCCCUGUCAGAUGCUGGUGAAUCUGCGAAUUCUGCUGGAUAUCUC [A15U U49G U74G] | 0.16
12 | UAACAGGGGGCCACUGCAGAAGCGUUCACGUCGCAGCCCCUGUCAGAUUCAGGUGGAUCUGUGAAUUCUGCCGUAUAUCAC [A15U U51A A56G C62U U72C U80A] | 0.15
13 | UAACAGGGGGCCACUGCAGAAGCGUUCACGUCGCAGCCCCUGUCAGAUUCAGGUGAAUCUGCGAAUUCUGCCGUAUAUCUC [A15U U51A U72C] | 1.08
14 | UAACAGGGGGCCACUGCAGAAGCGUUCACGUCGCAGCCCCUGUCAGAUUCAGGUGAAUCUGCGAAUUCUGCUGUAUAACUC [A15U U51A U78A] | 0.91
15 | UAACAGGGGGCCACUGCAGAAGCGUUCACGUCGCAGCCCCUGUCAGAUUCCGGUGGAUCUGCGAAUCCUGCAGUAUAUCUC [A15U U51C A56G U67C U72A] | 0.15
16 | UAACAGGGGGCCACUGCAGAAGCGUUCACGUCGCAGCCCCUGUCAGAUUCCGGUGAAUCUGCGUAUUCUGCUGUAUAUCUC [A15U U51C A64U] | 0.41
17 | UAACAGGGGGCCACUGCAGAAGCGUUCACGUCGCAGCCCCUGUCAGAUUCCGGUGAAUCUUCGGAUUCUGCUGUAUAUCUC [A15U U51C G61U A64G] | 0.08

Row | Variant | self-cleavage
18 | UAACAGGGGGCCACUGCAGAAGCGUUCACGUCGCAGCCCCUGUCAGAUUCUGGCGACUCUGCGGAUUCUGCUGUAUAUCUC [A15U U54C A57C A64G] | 0.13
19 | UAACAGGGGGCCACUGCAGAAGCGUUCACGUCGCAGCCCCUGUCAGAUUCUGGCGAAUCUGCGAGUUCUGCUGUAUAUCAC [A15U U54C A65G U80A] | 0.18
20 | UAACAGGGGGCCACUGCAGAAGCGUUCACGUCGCAGCCCCUGUCAGAUUCUGGCGAAUCUGCGAAUUCUGCUGUAUGUCUC [A15U U54C A77G] | 0.91
21 | UAACAGGGGGCCACUGCAGAAGCGUUCACGUCGCAGCCCCUGUCAGAUUCUGGCGAAUCUGCGAACUCUGCUGUAUUUCCC [A15U U54C U66C A77U U80C] | 0.19
22 | UAACAGGGGGCCACUGCAGAAGCGUUCACGUCGCAGCCCCUGUCAGAUUCUGGUGAAUCAGCGGAUUCUGCUGUAUAUCUC [A15U U60A A64G] | 0.12
23 | UAACAGGGGGCCACUGCAGAAGCGUUCACGUCGCAGCCCCUGUCAGAUUCUGGUGAAUCAGCGUAUUCUGCUGUAUAUCUC [A15U U60A A64U] | 0.12
24 | UAACAGGGGGCCACUGCAGAAGCGUUCACGUCGCAGCCCCUGUCAGAUUCUGGUGAAUCAGCGAAUUCAGCUGUAUAUCUC [A15U U60A U69A] | 0.17
25 | UAACAGGGGGCCACUGCAGAAGCGUUCACGUCGCAGCCCCUGUCAGAUUCUGGUGAAUCCGCGUAUUCUGCCGUAUAUCUC [A15U U60C A64U U72C] | 0.11
26 | UAACAGGGGGCCACUGCAGAAGCGUUCACGUCGCAGCCCCUGUCAGAUUCUGGUGAAUCCGCGAAUUCCGCAGUAUAUCUC [A15U U60C U69C U72A] | 0.15
27 | UAACAGGGGGCCACUGCAGAAGCGUUCACGUCGCAGCCCCUGUCAGAUUCUGGUGAAUCCGCGAAUUCUGCUGAAUAUCUC [A15U U60C U74A] | 0.13
28 | UAACAGGGGGCCACUGCAGAAGCGUUCACGUCGCAGCCCCUGUCAGAUUCUGGUGAAUCCGCGAAUUCUGCUGUAUAUCCC [A15U U60C U80C] | 0.3
29 | UAACAGGGGGCCACUGCAGAAGCGUUCACGUCGCAGCCCCUGUCAGAUUCUGGUGAAUCGGCGAAUACUGCUGUAUAUCUC [A15U U60G U67A] | 0.12
30 | UAACAGGGGGCCACUGCAGAAGCGUUCACGUCGCAGCCCCUGUCAGAUUCUGGUGAAUCUGCGAAUACUGCAGUUUAUCUC [A15U U67A U72A A75U] | 0.18
31 | UAACAGGGGGCCACUGCAGAAGCGUUCACGUCGCAGCCCCUGUCAGAUUCUGGUGAAUCUGCGAAUCCCGCUGUACAUCUC [A15U U67C U69C U76C] | 0.1
32 | UAACAGGGGGCCACUGCAGAAGCGUUCACGUCGCAGCCCCUGUCAGAUUCUGGUGAAUCUGCGAAUCCUGCAGUAUAUCUC [A15U U67C U72A] | 0.12
33 | UAACAGGGGGCCACUGCAGAAGCGUUCACGUCGCAGCCCCUGUCAGAUUCUGGUGAAUCUGCGAAUCCUGCUGUACAUCUC [A15U U67C U76C] | 0.18
34 | UAACAGGGGGCCACUGCAGAAGCGUUCACGUCGCAGCCCCUGUCAGAUUCUGGUGAAUCUGCGAAUGCUACUGUAUAUCUC [A15U U67G G70A] | 0.09
